Out of some 43,000 compounds screened, about 200 (0.47%) were called active. Another 12% or so got no clear call; they are omitted. Calls follow the shape of the dose curve; as a rule, active = well fitted cell-killing curve with a large enough effect; inconclusive = small, poorly fitted or top-dose-only effect, or effect the other way; inactive = flat fitted curve, though single readings scatter. The list shows a part of the results.
% is scaled to controls: 0 for no effect and ±100 for the full control effect.

The assay can be described thus: Cell viability qHTS assay in S16 Pmp22-F2sN cells. Also: nearly all actives have a fitted effect of over 65% in size. As to conditions: S16 Pmp22-F2sN Schwann cells viability, CellTiter-Glo, 24 h; series mostly up to 57.5 µM; activity change, negative = cytotoxicity: at the top concentration. The method in brief: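 Used to flag compounds lowering reporter output through toxicity, this quantitative HTS measures ATP-based CellTiter-Glo luminescence in S16 Pmp22-F2sN Schwann cells after 24 h compound exposure at 37C.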
On to `CC(C)c1ccc(NC(=O)CCS(=O)(=O)c2ccc3c(c2)CC(=O)N3C)cc1`, for which the “activity change, negative = cytotoxicity” value was inactive: -14%.

On to `O=S(=O)(c1ccccc1)c1nnn2c1nc(NCc1ccccc1)c1cc(Cl)ccc12`, for which the “activity change, negative = cytotoxicity” value was inactive: -19.3%. As for `O=C(Nc1cccc(F)c1)c1oc2ccccc2c1NC(=O)C12CC3CC(CC(C3)C1)C2`, the figure is inactive: 6.92%. As for `Cc1nc2nc(C)c(CCC(=O)NCc3ccccc3)c(C)n2n1`, the figure is inactive: -9.23%; as for `Cc1ccc2occ(CC(=O)Nc3ccc(S(=O)(=O)N4CCC(C)CC4)cc3)c2c1`, inactive: -23.6%. As for `O=C(NCc1ccco1)c1ccc(Cn2c(SCc3ccccc3F)nc3cccnc32)cc1`, the figure is inactive: -26.8%; as for `CCN1CCN(c2ncnc3c2cnn3-c2cccc(C)c2)CC1`, inactive: 0.836%; as for `O=C(CSc1ncccc1C(=O)Oc1ccccc1Cl)Nc1ccccc1Cl`, inactive: 0.87%. As for `CN(C)c1ccc(CNC(=O)C2COc3ccccc3C2)cc1` (stereo not given), the “activity change, negative = cytotoxicity” value was inactive: 0.873%.

Regarding `O=C(NCc1ccc(Cl)cc1)NC1COc2ccccc2C1` (stereo not given), the “activity change, negative = cytotoxicity” value is inactive: 5.07%. As to `CC1CCN(S(=O)(=O)c2ccc3c(c2)N(CC(=O)NCC(C)c2ccccc2)C(=O)CO3)CC1` (stereo not given), the “activity change, negative = cytotoxicity” value is inactive: 3.56%. As for `Cc1c(C(=O)OCc2ccccc2)[nH]c2c1C(=O)CC(c1ccc(Cl)cc1)C2` (stereo not given), the figure is inactive: -26.7%. As for `CCOc1ccc(C(=O)c2oc3ccccc3c2NC(=O)c2cc(-c3ccc(C)cc3)on2)cc1`, the figure is inactive: 2.35%; as for `Cc1ccc(-c2cc(C(F)(F)F)n3ncc(-c4ccccc4)c3n2)cc1`, inactive: 6.81%. As for `O=C(NC1CCCCC1)c1ccc2c(c1)N(Cc1ccccc1Cl)C(=O)c1ccccc1S2`, the figure is inactive: 5.45%; as for `COc1ccc(CCNC(=O)Cn2cc(S(=O)(=O)Cc3ccc(F)cc3)c3ccccc32)cc1OC`, inactive: -12.9%; as for `CC(C)CN(CC(C)C)CC(O)Cn1cc(/C=C/C(=O)c2ccccc2)c2ccccc21` (stereo not given), inactive: -4.57%. In the case of `O=C(COc1ccc(F)cc1)OCc1cc(=O)n2nc(-c3cccs3)sc2n1`, the “activity change, negative = cytotoxicity” value is inactive: 2.59%.

As to `COc1cccc(CNS(=O)(=O)c2c(C(=O)N3CCC(C)CC3)c(C)n(C)c2C)c1`, the “activity change, negative = cytotoxicity” value is inactive: -0.526%. With `CCOc1ccc(S(=O)(=O)Nc2ccc3oc4c(c3c2)CC(C)CC4)cc1` (stereo not given) the figure was inactive: -26.4%. On to `COc1ccccc1CNC(=O)COCc1cc(-c2ccc3c(c2)OCO3)on1`, for which the “activity change, negative = cytotoxicity” value was inactive: -1.6%. Turning to `COc1ccc(C)c2sc(NC(=O)c3ccc(S(=O)(=O)N4CCCC4)cc3)nc12`, the “activity change, negative = cytotoxicity” value is inactive: -3.09%. Turning to `CCOc1ccccc1CNC(=O)Cn1nc(N2CCN(c3ccccc3)CC2)ccc1=O`, the “activity change, negative = cytotoxicity” value is inactive: -13.3%. With `COc1ccc(C(=O)NCc2ccc3c(c2)CCN3C(=O)c2ccc(F)cc2)cc1` the figure was inactive: 11.5%; with `COc1cc(NS(=O)(=O)c2c(C)nc3sc(C)c(C)n3c2=O)cc(OC)c1`, inactive: 11.4%; with `Cc1cccc(N(C)S(=O)(=O)c2cc3[nH]c(=O)c(=O)[nH]c3cc2C)c1`, inactive: 8.7%. As for `CCCCC(=O)Nc1nnc(S(=O)(=O)N(C)Cc2ccccc2)s1`, the figure is inactive: 4.34%; as for `CCSc1nnc2c(n1)OC(c1ccc(OC)c(OC)c1)N(C(C)=O)c1ccccc1-2` (stereo not given), inactive: -2.04%. Consider `CN(C)c1ccc(CNC(=O)C2CCN(Cc3cc4ccccc4n3Cc3ccccc3)CC2)cc1`, for which the “activity change, negative = cytotoxicity” value is inactive: -14.9%. With `Cc1ccc(-c2noc(CSc3nnc(C)n3-c3ccc(C)c(C)c3)n2)cc1` the figure was inactive: -0.61%. On to `COc1ccc(Cl)cc1NC(=O)CSc1ccc2nnc(CCNS(=O)(=O)c3ccccc3)n2n1`, for which the “activity change, negative = cytotoxicity” value was inactive: 17.9%. `O=c1cc(-c2ccccc2)n2c(SCc3ccccc3Cl)nnc2[nH]1`: the “activity change, negative = cytotoxicity” value is inactive: 10.4%. As for `COc1ccc(-n2c(=O)c3c4c(sc3n(C)c2=O)CN(C(C)=O)CC4)cc1`, the figure is inactive: -8.79%; as for `COc1ccccc1CNC(=O)C(=O)NCC(c1cccs1)S(=O)(=O)c1cccs1` (stereo not given), inactive: -2.31%; as for `Cc1ccc2oc(C(=O)N(Cc3sccc3C)C3CCS(=O)(=O)C3)c(C)c2c1` (stereo not given), inactive: -4.93%.

As to `COc1cccc(CNC(=O)c2nc(Cn3nc(C)c(Br)c3C)no2)c1`, the “activity change, negative = cytotoxicity” value is inactive: -26%. As for `CCOc1ccc(Nc2c(S(=O)(=O)c3ccc(C)cc3)cnc3ccc(F)cc23)cc1`, the “activity change, negative = cytotoxicity” value is inactive: -17.3%. As for `Cc1ccc2[nH]c(=O)c3cc(C(=O)NC4CCC(C)CC4)sc3c2c1` (stereo not given), the figure is inactive: 18.3%; as for `CCOc1ccc(NC(=O)c2cc(S(=O)(=O)N3CCN(c4ccccc4F)CC3)ccc2F)cc1`, inactive: -12.7%. With `Cc1c(Cl)cccc1NC(=O)CSc1nc(=O)n(Cc2ccco2)c2c1CCC2` the figure was inactive: -29.1%; with `Cc1ccc(CCNC(=O)CN(c2ccc(C)cc2)S(=O)(=O)N(C)C)cc1`, inactive: 0.268%; with `COc1ccccc1C(=O)Nc1nnc2n1CCS2`, inactive: -9.68%. With `COc1cccc2c1cc1c(=O)n(CC(=O)NCc3ccco3)nc(C)n12` the figure was inactive: -2.9%. Take `O=C(NCCc1ccc(Cl)cc1)c1ccc(CS(=O)(=O)c2ccc(Cl)cc2)o1`: the “activity change, negative = cytotoxicity” value is inactive: -28.5%.

Turning to `Cc1cccc(C)c1NC(=O)C(NS(=O)(=O)c1cccs1)c1ccccc1` (stereo not given), the “activity change, negative = cytotoxicity” value is inactive: -4.87%. With `O=C(Cn1ccn(-c2ccc(F)cc2)c(=O)c1=O)Nc1ccc(F)cc1` the figure was inactive: 0.117%. As for `CCN(CC)C(=O)c1sc2c(c1C)c(=O)n(CCc1ccccc1)c(=O)n2Cc1cc(C)ccc1C`, the figure is inactive: 18.1%; as for `O=C(CSc1nnc(-c2cccs2)o1)Oc1ccccc1Cl`, inactive: 7.61%. As for `CC(C)(C)C(=O)NCC(c1ccc2c(c1)OCO2)N1CCOCC1` (stereo not given), the figure is inactive: 5.57%; as for `COc1cccc(N2CCN(C(=O)c3cc4c(s3)-c3ccccc3OC4)CC2)c1`, inactive: 5.54%; as for `COc1cc(CNC(=O)c2ccc3c(c2)c(C)c(C)n3Cc2cccc(C)c2)cc(OC)c1OC`, inactive: -17.6%. For `CCCC(=O)OCc1cnc(C)c2oc(=O)c(C(=O)Nc3cccc(C(F)(F)F)c3)cc12`, the “activity change, negative = cytotoxicity” value is inactive: 16.5%. With `COc1ccc(N(Cc2cccs2)C(=O)c2ccc(OC)c(Cl)c2)cc1` the figure was inactive: -1.02%; with `Cc1cccc(N2CCN(C(=O)C3CCN(S(=O)(=O)c4c(C)noc4C)CC3)CC2C)c1` (stereo not given), inactive: -2.64%. With `COc1ccc(NC(=O)Cn2cc(S(=O)(=O)c3ccccc3)c(=O)c3cc4c(cc32)OCO4)cc1`, the “activity change, negative = cytotoxicity” value is inactive: -0.408%.

In the case of `Cc1c(C(=O)Nc2ccccc2)sc2nc(-c3cc4cc(Cl)ccc4oc3=O)[nH]c(=O)c12`, the “activity change, negative = cytotoxicity” value was inactive: 6.65%. With `CCCS(=O)(=O)c1c(S(=O)(=O)CCC)c2cc(C(C)(C)C)ccn2c1C(=O)c1ccccc1` the figure was inactive: -14%.

As for `COc1cccc(N2CCN(C(=O)C3CCN(S(=O)(=O)c4c(C)noc4/C=C/c4ccccc4F)CC3)CC2)c1`, the “activity change, negative = cytotoxicity” value was inactive: 5.81%.

Take `CCC(=O)Nc1ccccc1-c1nc2ccccc2n(CC(=O)Nc2ccccc2OC)c1=O`: the “activity change, negative = cytotoxicity” value is inactive: -16.8%.

For the compound `COc1ccc(-c2nc3scc(CCNS(=O)(=O)c4ccc(F)cc4C)n3n2)cc1`, the “activity change, negative = cytotoxicity” value was inactive: -9.6%. In the case of `COC(=O)c1cc2oc3ccccc3c2n1Cc1ccc(Cl)cc1`, the “activity change, negative = cytotoxicity” value is inactive: 2.97%. With `CCC(Oc1ccc(F)cc1)C(=O)Nc1c(C(=O)c2ccc(C)cc2)oc2ccccc12` (stereo not given), the “activity change, negative = cytotoxicity” value was inactive: 4.75%.

For the compound `CCn1cc(C(=O)N2CCN(c3ccccc3)CC2)c(=O)c2cc(S(=O)(=O)N3CCOCC3)ccc21`, the “activity change, negative = cytotoxicity” value was inactive: 9.85%. As for `COc1ccc(NC(=O)c2ccc3nc(C(C)C)oc3c2)cc1OC`, the figure is inactive: 0.249%; as for `COc1ccc(N(C)C(=O)c2cn(C)c(=O)c3cc(OC)c(OC)cc23)cc1`, inactive: 10.5%. As for `Cc1ccc(Cn2c(CO)cnc2SCC(=O)Nc2ccc(C)c(Cl)c2)cc1`, the figure is inactive: -14%.

In the case of `CCN(CC)CCNC(=O)c1cc2c(=O)n(C)c3cc(Cl)ccc3c2s1`, the “activity change, negative = cytotoxicity” value was inactive: 17.1%.

`COc1cccc(CN2c3ccccc3-c3nc(SCC(=O)Nc4ccccc4Cl)ncc3S2(=O)=O)c1`: the “activity change, negative = cytotoxicity” value is inactive: 13.8%. Consider `Cc1ccc(-c2ccc(=O)n(CCC(=O)NCCc3ccccc3)n2)cc1`, for which the “activity change, negative = cytotoxicity” value was inactive: 10%.

For the compound `O=C1CSC2(C(=O)N(Cc3cccc(F)c3)c3ccccc32)N1c1cccc(C(F)(F)F)c1` (stereo not given), the “activity change, negative = cytotoxicity” value is inactive: 0.32%. With `CC(C)COc1ccc(C(=O)N2CCN(CCc3ccncc3)CC2)cc1` the figure was inactive: 9.2%; with `CCCCN(C)CCNC(=O)c1cc2c(=O)n(C)c3ccccc3c2n1C`, inactive: -4.65%; with `COc1ccc(CNC(=O)CCc2c(C)c3cc4c(C)coc4c(C)c3oc2=O)cc1OC`, inactive: 11%.

Take `CCCc1nn2c(=O)cc(COC(=O)c3ccc(NC(=O)COc4ccccc4)cc3)nc2s1`: the “activity change, negative = cytotoxicity” value is inactive: -1.66%. With `N#Cc1ccccc1NS(=O)(=O)c1ccc(N2CCCCS2(=O)=O)cc1` the figure was inactive: -5.05%. With `CN1C(=O)c2ccccc2Sc2ccc(NC(=O)c3ccc(C(F)(F)F)cc3)cc21` the figure was inactive: -10.9%; with `Cc1nn2c(C)c(C(=O)NC(C)(C)C)cnc2c1-c1ccc(F)cc1`, inactive: 1.21%; with `COc1ccc(N2C(=O)CSC23C(=O)N(CC(=O)NCCc2ccccc2)c2ccccc23)cc1` (stereo not given), inactive: -1.63%.

With `O=C(CSc1nc(=O)[nH]c2c1CCCC2)NCc1ccccc1`, the “activity change, negative = cytotoxicity” value was inactive: 1.13%. As for `COc1ccccc1C(=O)Nc1ccc(C(=O)OCc2cc(=O)n3nc(C4CC4)sc3n2)cc1`, the figure is inactive: 2.76%. As for `COc1ccc(NC(=O)Cn2c(=O)n(Cc3ccccc3)c(=O)c3sc4ccccc4c32)cc1`, the figure is inactive: 18.6%. With `CCOc1ccc(C(=O)Nc2ccc3oc(-c4ccc5ccccc5c4)nc3c2)cc1` the figure was inactive: -1.1%. On to `CCCCNC(=O)c1cc2n(n1)CCCN(Cc1ccc(C)cc1)C2=O`, for which the “activity change, negative = cytotoxicity” value is inactive: -0.156%. On to `CCc1ccc(Cn2c(CNS(=O)(=O)c3ccc(C)c(C)c3)nc3cccnc32)cc1`, for which the “activity change, negative = cytotoxicity” value was inactive: -6.2%. With `Cc1ccc(N2CC(NC(=O)c3cc4ccccc4o3)CC2=O)cc1` (stereo not given) the figure was inactive: 4.02%. Consider `Cc1ccc(S(=O)(=O)c2c(O)cc(C)c(NS(=O)(=O)c3ccc(Cl)cc3)c2C)cc1`, for which the “activity change, negative = cytotoxicity” value is inactive: -13.6%. With `COc1ccccc1N1CCN(S(=O)(=O)c2c(C)nc3sccn3c2=O)CC1` the figure was inactive: 1.45%; with `Cc1cc(C)c2sc(N3CCN(C(=O)c4ccc(N(C)C)cc4)CC3)nc2c1`, inactive: 0.823%.

`CC(C)c1nn2c(=O)cc(COC(=O)c3ccco3)nc2s1`: the “activity change, negative = cytotoxicity” value is inactive: 17.9%. Regarding `CC(C)c1noc(-c2ccccc2OCC(=O)Nc2cccc([N+](=O)[O-])c2)n1`, the “activity change, negative = cytotoxicity” value was inactive: 11.9%. With `CC(C)Sc1ncc(Cl)c(C(=O)Nc2ccc(S(=O)(=O)N3CCCCC3)cc2)n1` the figure was inactive: -2.11%; with `CCN(CC)S(=O)(=O)c1ccc2c(c1)c(=O)c(C(=O)N1CCN(c3cc(Cl)ccc3C)CC1)cn2C`, inactive: -3.48%. As for `CC(=O)N1CCc2cc(Br)cc(S(=O)(=O)CCC(=O)N3CCN(c4ccccc4Cl)CC3)c21`, the figure is inactive: 8.21%; as for `Cc1ccc(CN(C(=O)COc2cc(C)c(Cl)c(C)c2)c2ccccn2)o1`, inactive: -2.97%; as for `CCOc1ccc(-c2c(C)nn3c(C)c(C(=O)Nc4cc(C)cc(C)c4)cnc23)cc1OCC`, inactive: 2.24%.

The values are drawn from PubChem BioAssay AID1508642 (National Center for Advancing Translational Sciences (NCATS), 2021).
